Test results published in the supplement of paper PMC8183993.
Counter-ions that a name gives are not always drawn. ± gives the standard deviation of the averaged measurements. Over roughly 3,100 compounds, “mean cytoplasmic OPP incorporation (global translation) relative to DMSO” has its median near 100; the lowest 2% begin near 56. This is one part of the list.

test system: U2OS; experiment: mean cytoplasmic OPP incorporation (global translation) relative to DMSO (% of DMSO); higher = more protein synthesis; details: 10 µM; 24 h
Protocol: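 Primary image-based screen in U2OS cells: compounds at 10 uM for 24 h, then a 1 h o-propargyl-puromycin (OPP) pulse, click labelling, and high-throughput microscopy. Mean cytoplasmic OPP intensity and nuclei count were normalised to DMSO wells within each plate (DMSO = 100) and averaged over triplicate plates.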

Row | Compound | mean cytoplasmic OPP incorporation
1 | Cc1cc(-c2ccccc2)nnc1NCCN1CCOCC1 [Minaprine dihydrochloride] | 99.4
2 | NC(N)=Nc1nc(CSCC/C(N)=N/S(N)(=O)=O)cs1 [Famotidine] | 97.4
3 | NC(N)=Nc1nc(CSCC/C(N)=N/S(N)(=O)=O)cs1 [Famotidine (Pepcid)] | 108
4 | Cl.N=C(N)NCCC[C@H](N)C(=O)O [L-Arginine HCl] | 99
5 | CC/C(=C(/CC)c1ccc(O)cc1)c1ccc(O)cc1 [Diethylstilbestrol] | 107
6 | CC1=C(/C=C/C(C)=C/C=C/C(C)=C\C(=O)O)C(C)(C)CCC1 [Isotretinoin] | 90.6
7 | CC1=C(/C=C/C(C)=C/C=C/C(C)=C\C(=O)O)C(C)(C)CCC1 [13-cis Retinoic acid] | 101
8 | CSc1ccc2c(c1)N(CCC1CCCCN1C)c1ccccc1S2 (stereo not drawn) [Thioridazine hydrochloride] | 116
9 | CC(C)(Sc1ccc(CCN(CCCCC2CCCCC2)C(=O)NC2CCCCC2)cc1)C(=O)O | 102 ± 4.1
10 | O=C1C=CC(=O)C2=C1C1c3ccccc3C2c2ccccc21 | 103
11 | CC(/C=C/C(=O)NO)=C\[C@@H](C)C(=O)c1ccc(N(C)C)cc1 [Trichostatin A] | 66.2 ± 33
12 | Cc1cc(Nc2nc(N[C@@H](C)c3ccc(F)cc3)c(C#N)cc2F)n[nH]1 | 92.2
13 | CCN(CCO)CCCC(C)Nc1ccnc2cc(Cl)ccc12 (stereo not drawn) [Hydroxychloroquine] | 93
14 | CCN(CCO)CCCC(C)Nc1ccnc2cc(Cl)ccc12 (stereo not drawn) [Hydroxychloroquine sulfate] | 102
15 | Cc1nc(Nc2ncc(C(=O)Nc3c(C)cccc3Cl)s2)cc(N2CCN(CCO)CC2)n1 | 123
16 | CCN1CCN(Cc2ccc(-c3cc4c(N[C@H](C)c5ccccc5)ncnc4[nH]3)cc2)CC1 | 99.4 ± 3.2
17 | CCOC(=O)c1c(CSc2ccccc2)n(C)c2cc(Br)c(O)c(CN(C)C)c12 [Arbidol HCl] | 109
18 | CC(=O)[C@H]1CC[C@H]2[C@@H]3CC=C4C[C@@H](O)CC[C@]4(C)[C@H]3CC[C@]12C [Pregnenolone] | 102 ± 3
19 | COc1ccc(CC2c3cc(OC)c(OC)cc3CC[N+]2(C)CCC(=O)OCCCCCOC(=O)CC[N+]2(C)CCc3cc(OC)c(OC)cc3C2Cc2ccc(OC)c(OC)c2)cc1OC (stereo not drawn) [Atracurium besylate] | 103
20 | CN(C)c1ccc(C(=C2C=CC(=[N+](C)C)C=C2)c2ccc(N(C)C)cc2)cc1 [Crystal violet] | 106
21 | Oc1cc2c(cc1O)[C@@H]1c3ccc(O)c(O)c3OC[C@]1(O)C2 [Hematoxylin (Hydroxybrazilin)] | 88.4
22 | CC(C(=O)O)c1ccc2c(c1)CC(=O)c1ccccc1S2 (stereo not drawn) [Zaltoprofen] | 102
23 | C[C@@H](O)[C@H]1C(=O)N2C(C(=O)[O-])=C(SC3Cn4cnc[n+]4C3)[C@H](C)[C@H]12 (stereo partly drawn) [Biapenem] | 101
24 | Cc1nc(-c2ccc(OCC(C)C)c(C#N)c2)sc1C(=O)O [Febuxostat (Uloric)] | 100

Row | Compound | mean cytoplasmic OPP incorporation
25 | CC(COc1ccccc1)NC(C)C(O)c1ccc(O)cc1 (stereo not drawn) [Isoxsuprine hydrochloride] | 104
26 | CC(C)(C)c1ccc(C(O)CCCN2CCC(C(O)(c3ccccc3)c3ccccc3)CC2)cc1 (stereo not drawn) [Terfenadine] | 105
27 | C=C1/C(=C\C=C2/CCC[C@]3(C)[C@@H]([C@H](C)/C=C/[C@H](C)C(C)C)CC[C@@H]23)C[C@@H](O)C[C@@H]1O [Doxercalciferol (Hectorol)] | 105
28 | C[C@H]1O[C@@H](Oc2c(-c3cc(O)c(O)c(O)c3)oc3cc(O)cc(O)c3c2=O)[C@@H](O)[C@@H](O)[C@@H]1O [Myricitrin (Myricitrine)] | 97.9
29 | Cc1ccc2c(=O)c3cccc(CC(=O)O)c3oc2c1C | 101
30 | C=C1C(=O)O[C@@H](CCC)[C@@H]1C(=O)O [Butyrolactone 3] | 100
31 | CCOC(=O)NNc1nncc2ccccc12 [Todralazine hydrochloride] | 99.7
32 | CCCCN1CCCCC1C(=O)Nc1c(C)cccc1C (stereo not drawn) [Bupivacaine hydrochloride] | 105
33 | C[N+](C)(C)[C@@H](Cc1c[nH]c(=S)[nH]1)C(=O)[O-] [L-Ergothioneine] | 117
34 | COC1CCN(C(=O)c2cc(Cc3n[nH]c(=O)c4ccccc34)ccc2F)CC1 | 93.5
35 | c1cncc(CN2CCC(n3ncc4c(N5CCOCC5)nc(-c5ccc6[nH]ccc6c5)nc43)CC2)c1 | 88.7
36 | C=C(C)[C@@H](CC=C(C)C)C[C@@]12C[C@@H](CC=C(C)C)C(C)(C)[C@@](CC=C(C)C)(C(=O)C(C(=O)c3ccc(O)c(O)c3)=C1O)C2=O [Garcinol] | 100
37 | Nc1ccn([C@@H]2O[C@H](CO)[C@@H](O)[C@@H]2O)c(=O)n1 [Cytarabine] | 84.8 ± 8.8
38 | O=S1(=O)c2cccc3cccc(c23)N1CCCN1CCN(c2ccc(F)cc2)CC1 [Fananserin] | 103
39 | Nc1ncnc2c1ncn2C1CCCO1 (stereo not drawn) | 96.6
40 | Cc1[nH]c2ccccc2c1CCNCc1ccc(/C=C/C(=O)NO)cc1 [Panobinostat] | 51.6
41 | Nc1ccc(S(=O)(=O)Nc2ccccn2)cc1 [Sulfapyridine] | 96.3
42 | Cn1cc(-c2ccncc2)c(-c2ccc(OCc3ccc4ccccc4n3)cc2)n1 | 117
43 | O=C(O)[C@H]1O[C@@H](Oc2cc3oc(-c4ccccc4)cc(=O)c3c(O)c2O)[C@H](O)[C@@H](O)[C@@H]1O [Baicalin] | 108
44 | Nc1ccc(C(=O)Nc2cccc(-c3nc(N4CCOCC4)c4oc5ncccc5c4n3)c2)cn1 | 95.2 ± 2
45 | CN(C)CCCN1c2ccccc2Sc2ccc(Cl)cc21 [Chlorpromazine hydrochloride] | 85.4
46 | O=C(O)c1c(Sc2ccccc2)c2cc(Cl)ccc2n1Cc1ccc(Cl)cc1 | 97.6
47 | COc1cc([C@@H]2c3cc4c(cc3[C@@H](O[C@@H]3O[C@@H]5CO[C@@H](c6cccs6)O[C@H]5[C@H](O)[C@H]3O)[C@H]3COC(=O)[C@H]23)OCO4)cc(OC)c1O [Teniposide (Vumon)] | 141
48 | CCOc1ccccc1OC(c1ccccc1)C1CNCCO1 (stereo not drawn) [Reboxetine mesylate] | 106 ± 15
